Assay [1] addresses GST-VAPB-MSP (wild-type MSP-domain of VAPB fused to a GST-tag) (UniProt O95292). The assay can be described thus: condition: only lysate treated with λ-phosphatase (7 U/µl, 1 h at 30 °C); pull-down; GST proteins (200 pmol) on GST-Selector beads, 3 h with lysate of asynchronous HeLa cells; Western blot; only the target purified. (Immunoblotting shows a protein as a band on a membrane.)

By UniProt entry, the sequences of proteins in these tests, tags left out. Where a name states a change or a piece, a line headed by the entry shows the natural chain unless it says otherwise. Chains listed by the source or under a name are the forms on record and can include a tag or linker.
UniProt O95292: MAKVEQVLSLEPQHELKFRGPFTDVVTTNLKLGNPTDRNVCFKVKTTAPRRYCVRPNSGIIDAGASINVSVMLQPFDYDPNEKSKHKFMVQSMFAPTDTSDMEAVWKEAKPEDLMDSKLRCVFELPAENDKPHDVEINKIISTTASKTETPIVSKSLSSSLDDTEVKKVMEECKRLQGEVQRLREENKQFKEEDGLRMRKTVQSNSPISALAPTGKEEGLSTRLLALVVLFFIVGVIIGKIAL
GST-VAPB-MSP-K87D/M89D (O95292, form named): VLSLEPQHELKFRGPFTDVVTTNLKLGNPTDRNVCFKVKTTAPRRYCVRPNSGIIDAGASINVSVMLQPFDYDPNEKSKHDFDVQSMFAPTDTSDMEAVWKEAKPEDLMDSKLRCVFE
UniProt Q9BXW6: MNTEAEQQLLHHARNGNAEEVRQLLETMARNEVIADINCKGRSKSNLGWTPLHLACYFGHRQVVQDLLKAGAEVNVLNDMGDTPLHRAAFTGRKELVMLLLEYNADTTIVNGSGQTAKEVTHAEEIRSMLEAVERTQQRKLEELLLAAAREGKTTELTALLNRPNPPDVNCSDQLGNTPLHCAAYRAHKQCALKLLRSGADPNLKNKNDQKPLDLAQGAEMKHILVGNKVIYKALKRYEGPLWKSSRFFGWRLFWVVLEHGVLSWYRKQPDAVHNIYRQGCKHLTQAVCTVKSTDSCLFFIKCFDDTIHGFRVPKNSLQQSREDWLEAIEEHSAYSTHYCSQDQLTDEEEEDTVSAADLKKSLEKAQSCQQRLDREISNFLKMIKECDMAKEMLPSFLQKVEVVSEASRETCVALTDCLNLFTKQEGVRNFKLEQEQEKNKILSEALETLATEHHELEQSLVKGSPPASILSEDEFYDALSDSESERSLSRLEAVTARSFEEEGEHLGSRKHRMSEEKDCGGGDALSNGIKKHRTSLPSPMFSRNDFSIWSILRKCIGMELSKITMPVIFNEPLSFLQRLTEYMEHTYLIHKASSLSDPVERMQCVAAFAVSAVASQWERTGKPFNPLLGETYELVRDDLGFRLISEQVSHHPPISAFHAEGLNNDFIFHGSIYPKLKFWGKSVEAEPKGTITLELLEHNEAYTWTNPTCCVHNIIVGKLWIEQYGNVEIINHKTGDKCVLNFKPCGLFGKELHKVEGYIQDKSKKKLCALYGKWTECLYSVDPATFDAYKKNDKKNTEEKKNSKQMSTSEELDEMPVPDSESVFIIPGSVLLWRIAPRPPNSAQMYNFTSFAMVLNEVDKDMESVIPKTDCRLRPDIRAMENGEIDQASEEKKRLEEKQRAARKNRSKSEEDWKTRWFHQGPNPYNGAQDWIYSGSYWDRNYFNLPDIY
UniProt Q14739: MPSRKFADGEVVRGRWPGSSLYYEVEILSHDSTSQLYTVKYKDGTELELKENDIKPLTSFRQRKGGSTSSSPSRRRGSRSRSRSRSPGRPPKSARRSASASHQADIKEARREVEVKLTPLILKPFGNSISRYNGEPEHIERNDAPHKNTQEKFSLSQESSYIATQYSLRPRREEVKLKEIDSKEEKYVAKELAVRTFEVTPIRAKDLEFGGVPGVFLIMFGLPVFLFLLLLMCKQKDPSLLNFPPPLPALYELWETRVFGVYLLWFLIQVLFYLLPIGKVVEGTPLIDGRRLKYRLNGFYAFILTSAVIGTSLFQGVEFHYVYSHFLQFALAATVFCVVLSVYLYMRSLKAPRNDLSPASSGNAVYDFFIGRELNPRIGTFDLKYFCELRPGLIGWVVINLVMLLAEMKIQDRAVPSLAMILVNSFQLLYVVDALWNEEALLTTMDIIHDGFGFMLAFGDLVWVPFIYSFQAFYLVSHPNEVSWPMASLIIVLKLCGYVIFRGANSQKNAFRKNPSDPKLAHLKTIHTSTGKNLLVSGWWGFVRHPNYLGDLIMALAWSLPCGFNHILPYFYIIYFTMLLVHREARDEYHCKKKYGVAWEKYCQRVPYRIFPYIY

Assay [2] shares this target. The assay can be described thus: condition: only lysate treated with λ-phosphatase (7 U/µl, 1 h at 30 °C); pull-down; GST proteins (200 pmol) on GST-Selector beads, 3 h with lysate of mitotic (DME) HeLa or HEK293T cells; Western blot; only the target purified.
Assay [3] shares this target. The assay can be described thus: pull-down; GST proteins (200 pmol) on GST-Selector beads, 3 h with lysate of asynchronous HeLa cells; Western blot; only the target purified.
The target is the same in assay [4]. Nature of the assay: pull-down; GST proteins (200 pmol) on GST-Selector beads, 3 h with lysate of mitotic (DME) HeLa or HEK293T cells; Western blot; only the target purified.
Another assay addresses GST-VAPB-MSP-K87D/M89D (UniProt O95292). The assay is described as above.
The target of assay [5] is T1, His-ELYS(1018-1642)-MBP S1314D (human (HeLa cDNA)) (UniProt Q8WYP5).
T1 sequence: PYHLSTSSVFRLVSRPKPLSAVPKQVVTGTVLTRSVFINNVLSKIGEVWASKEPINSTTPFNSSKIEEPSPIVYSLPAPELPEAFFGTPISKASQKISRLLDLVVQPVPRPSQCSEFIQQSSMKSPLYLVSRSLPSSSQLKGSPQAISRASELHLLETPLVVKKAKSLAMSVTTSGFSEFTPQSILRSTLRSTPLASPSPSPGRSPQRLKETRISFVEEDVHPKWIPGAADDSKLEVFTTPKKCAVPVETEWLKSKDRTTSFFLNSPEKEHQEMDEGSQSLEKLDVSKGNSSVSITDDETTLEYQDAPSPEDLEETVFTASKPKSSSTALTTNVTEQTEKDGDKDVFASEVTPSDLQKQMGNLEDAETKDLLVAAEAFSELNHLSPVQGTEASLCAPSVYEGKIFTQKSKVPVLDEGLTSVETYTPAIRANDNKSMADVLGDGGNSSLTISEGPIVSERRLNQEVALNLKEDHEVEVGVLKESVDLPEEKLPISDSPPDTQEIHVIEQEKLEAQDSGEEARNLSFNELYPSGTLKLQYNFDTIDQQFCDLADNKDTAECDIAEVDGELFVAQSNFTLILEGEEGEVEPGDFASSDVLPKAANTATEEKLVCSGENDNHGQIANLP
Nature of the assay: pull-down; 100 pmol His-ELYS(1018-1642)-MBP on MBP-Selector beads, 300 pmol GST or GST-MSP-VAPB, 2 h at 4 °C, 50 mM Tris HCl pH 7.4, 150 mM NaCl, hemoglobin 1.25 mg/ml; Coomassie; both purified.

The target of assay [6] is T2, ORP1-peptide (amino acid residues 469-485) (UniProt Q9BXW6).
T2 sequence (peptide, biotin at the N-terminus): SILSEDEFYDALSDSES
Nature of the assay: pull-down; 20 nmol biotinylated peptide on neutravidin agarose, 30 µg purified protein in 500 µl, 2 h at 4 °C, 50 mM Tris-HCl pH 7.4, 75 mM NaCl, 1 mM EDTA, 1% Triton X-100, 0.25 mM DTT; Coomassie; both purified.

In assay [7] the target is T3, GFP-ELYS(1018-1642), wild type (human (HeLa cDNA)) (UniProt Q8WYP5).
T3 sequence: T1 sequence with D297S
Nature of the assay: co-IP; GFP-ELYS(1018-1642) versions precipitated with GFP-Selector from lysates of mitotic (DME) stable HeLa Flp-In T-REx cells; blot for endogenous VAPB.

Assay [8] deals with T4, GFP-ELYS(1018-1642) S1314D (human (HeLa cDNA)) (UniProt Q8WYP5).
T4 sequence: T1 sequence
The description is as above.

For assay [9], the target named is T5, GFP-ELYS(1018-1642) S1314A (human (HeLa cDNA)) (UniProt Q8WYP5).
T5 sequence: T1 sequence with D297A
The description is as above.

In assay [10] the target is HA-VAPB (wild type) (UniProt O95292). The assay can be described thus: proximity ligation; Duolink PLA in fixed HeLa Flp-In T-REx cells expressing HA-VAPB or HA-VAPB-KD/MD, anaphase cells, signals around chromatin; anti-HA and antibody against the partner.
The target of the next assay is HA-VAPB-K87D/M89D (UniProt O95292). Described as above.
Assay [11] deals with HA-VAPB (wild type) (UniProt O95292). The assay can be described thus: proximity ligation; Duolink PLA in fixed HeLa Flp-In T-REx cells expressing HA-VAPB or HA-VAPB-KD/MD, interphase cells, total cellular signals; anti-HA and anti-OSBPL9.
Assay [12] concerns the target GST-VAPB-MSP (wild-type MSP-domain of VAPB fused to a GST-tag) (UniProt O95292). Nature of the assay: pull-down; GST proteins (200 pmol) on GST-Selector beads, 3 h with lysate of asynchronous HeLa cells; Western blot; only the target purified. The source holds these as a separate data set.

Numbering of substitutions follows the chain as printed. Results are given in words; binding and its absence hold for the method and conditions named. For some of these results: In cells and extracts the contact can be indirect. Some binding calls cover weakened binding; strength is not graded here. For some of these results: Where a sequence is shown, tags or fusion partners need not be part of it.

With “ELYS (embryonic large molecule derived from yolk sac), endogenous, HeLa (from UniProt Q8WYP5 1-2266)”, the binding entry in assay [1] is reported as “no binding”; in assay [2], “no binding”; in [3], “binds weakly”; in assay [4] it was “binds”; with GST-VAPB-MSP-K87D/M89D, “no binding”.

“ELYS, endogenous, HEK293T (from UniProt Q8WYP5 1-2266)”: in assay [4], the binding result is “binds”.

Turning to “GST-VAPB-MSP (wild-type MSP-domain of VAPB fused to a GST-tag) (from UniProt O95292 7-124) (domain or fragment)”, the binding result in assay [5] and in [6] was “binds” in each case.

Take “VAPB (Vesicle-Associated-membrane Protein-associated protein B), endogenous (from UniProt O95292 1-243)”: the binding entry in [7], in [8] and in [9] was “binds” in each case.

As to “lamin B receptor (LBR), endogenous (from UniProt Q14739 1-615)”, the binding entry in the assay with HA-VAPB (wild type) [10] and with HA-VAPB-K87D/M89D was “binds” each time.

B1: OSBPL9, endogenous (protein, UniProt Q96SU4 1-736)
chain: MASIMEGPLSKWTNVMKGWQYRWFVLDYNAGLLSYYTSKDKMMRGSRRGCVRLRGAVIGIDDEDDSTFTITVDQKTFHFQARDADEREKWIHALEETILRHTLQLQGLDSGFVPSVQDFDKKLTEADAYLQILIEQLKLFDDKLQNCKEDEQRKKIETLKETTNSMVESIKHCIVLLQIAKDQSNAEKHADGMISTINPVDAIYQPSPLEPVISTMPSQTVLPPEPVQLCKSEQRPSSLPVGPVLATLGHHQTPTPNSTGSGHSPPSSSLTSPSHVNLSPNTVPEFSYSSSEDEFYDADEFHQSGSSPKRLIDSSGSASVLTHSSSGNSLKRPDTTESLNSSLSNGTSDADLFDSHDDRDDDAEAGSVEEHKSVIMHLLSQVRLGMDLTKVVLPTFILERRSLLEMYADFFAHPDLFVSISDQKDPKDRMVQVVKWYLSAFHAGRKGSVAKKPYNPILGEIFQCHWTLPNDTEENTELVSEGPVPWVSKNSVTFVAEQVSHHPPISAFYAECFNKKIQFNAHIWTKSKFLGMSIGVHNIGQGCVSCLDYDEHYILTFPNGYGRSILTVPWVELGGECNINCSKTGYSANIIFHTKPFYGGKKHRITAEIFSPNDKKSFCSIEGEWNGVMYAKYATGENTVFVDTKKLPIIKKKVRKLEDQNEYESRSLWKDVTFNLKIRDIDAATEAKHRLEERQRAEARERKEKEIQWETRLFHEDGECWVYDEPLLKRLGAAKH
For the molecule B1, the binding entry (in the assay with HA-VAPB (wild type) [11]; in [12]) was “binds” throughout.

B2: ACBD5 (acyl-CoA binding domain protein), endogenous (protein, UniProt Q5T8D3 1-534)
chain: MFQFHAGSWESWCCCCLIPADRPWDRGQHWQLEMADTRSVHETRFEAAVKVIQSLPKNGSFQPTNEMMLKFYSFYKQATEGPCKLSRPGFWDPIGRYKWDAWSSLGDMTKEEAMIAYVEEMKKIIETMPMTEKVEELLRVIGPFYEIVEDKKSGRSSDITSVRLEKISKCLEDLGNVLTSTPNAKTVNGKAESSDSGAESEEEEAQEEVKGAEQSDNDKKMMKKSADHKNLEVIVTNGYDKDGFVQDIQNDIHASSSLNGRSTEEVKPIDENLGQTGKSAVCIHQDINDDHVEDVTGIQHLTSDSDSEVYCDSMEQFGQEESLDSFTSNNGPFQYYLGGHSSQPMENSGFREDIQVPPGNGNIGNMQVVAVEGKGEVKHGGEDGRNNSGAPHREKRGGETDEFSNVRRGRGHRMQHLSEGTKGRQVGSGGDGERWGSDRGSRGSLNEQIALVLMRLQEDMQNVLQRLQKLETLTALQAKSSTSTLQTAPQPTSQRPSWWPFEMSPGVLTFAIIWPFIAQWLVYLYYQRRRRKLN
Consider B2, for which the binding entry in assay [12] is recorded as “binds”.

The record behind these values is paper PMC11094025.
